From PubChem BioAssay (NCI)
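Each compound was tested at five concentrations against cells in 96-well plates for 48 hours. GI50 marks 50% less growth. Definition used: TGI = concentration required for complete inhibition of growth.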

System: NCI-H322M lung
Assay: NCI tumour cell line growth inhibition, 48 h

For Cc1nc2cnc(N)c(C#Cc3cncc(C(=O)Nc4ccc(Cl)c(C(F)(F)F)c4)c3)c2nc1C, the GI50 was 3.7 µM and the TGI was 20.8 µM.
